# The other results are listed elsewhere or left out.
# Legend:
# Test in all cases: glycan array binding signal (z-score within array); higher = stronger binding
# Conditions in all cases: glycan notation: IUPAC condensed, linker removed
# [1] = molecular target: GlcNAc(b1-3)Man
# Summary of the method: (§1)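 The binding signal is a Z-score computed within each array and averaged over linkers. Arrays of the same protein sequence at different concentrations or buffers were also averaged together. Data originate from 3228 arrays in the Consortium for Functional Glycomics database, kept only where the protein sequence was available.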
# [2] = molecular target: GlcNAc(b1-3)[GlcNAc(b1-4)][GlcNAc(b1-6)]GlcNAc
# Summary of the method: as §1
# [3] = molecular target: GlcNAc(b1-3)[GlcNAc(b1-6)]Gal(b1-4)GlcNAc
# Summary of the method: as §1
# [4] = molecular target: GlcNAc(b1-3)[GlcNAc(b1-6)]GalNAc
# Summary of the method: as §1
# [5] = molecular target: GlcNAc(b1-4)Gal(b1-4)GlcNAc
# Summary of the method: as §1
# [6] = molecular target: GlcNAc(b1-4)GlcNAc
# Summary of the method: as §1
# [7] = molecular target: GlcNAc(b1-4)GlcNAc(b1-4)GlcNAc
# Summary of the method: as §1
# [8] = molecular target: GlcNAc(b1-4)GlcNAc(b1-4)GlcNAc(b1-4)GlcNAc(b1-4)GlcNAc
# Summary of the method: as §1
# [9] = molecular target: GlcNAc(b1-4)GlcNAc(b1-4)GlcNAc(b1-4)GlcNAc(b1-4)GlcNAc(b1-4)GlcNAc
# Summary of the method: as §1
# [10] = molecular target: GlcNAc(b1-4)[GlcNAc(b1-6)]GalNAc
# Summary of the method: as §1
# [11] = molecular target: GlcNAc(b1-6)Gal(b1-4)GlcNAc
# Summary of the method: as §1
# [12] = molecular target: GlcNAc(b1-6)GalNAc
# Summary of the method: as §1
# [13] = molecular target: GlcNAc6S(b1-3)Gal(b1-4)GlcNAc
# Summary of the method: as §1
# [14] = molecular target: Kdn(a2-3)Gal(b1-3)GalNAc
# Summary of the method: as §1
# [15] = molecular target: Kdn(a2-3)Gal(b1-3)GlcNAc
# Summary of the method: as §1
# [16] = molecular target: Kdn(a2-3)Gal(b1-4)Glc
# Summary of the method: as §1
# [17] = molecular target: Kdn(a2-3)Gal(b1-4)GlcNAc
# Summary of the method: as §1
# [18] = molecular target: Kdn(a2-3)Gal(b1-4)[Fuc(a1-3)]GlcNAc
# Summary of the method: as §1
# [19] = molecular target: Kdn(a2-6)Gal(b1-4)GlcNAc
# Summary of the method: as §1
# [20] = molecular target: Man(a1-2)Man(a1-2)Man(a1-3)Man
# Summary of the method: as §1
# [21] = molecular target: Man(a1-2)Man(a1-2)Man(a1-6)[Man(a1-3)]Man
# Summary of the method: as §1
# [22] = molecular target: Man(a1-2)Man(a1-3)Man
# Summary of the method: as §1
# [23] = molecular target: Man(a1-2)Man(a1-3)[Man(a1-2)Man(a1-6)]Man
# Summary of the method: as §1
# [24] = molecular target: Man(a1-2)Man(a1-3)[Man(a1-2)Man(a1-6)]Man(a1-6)[Man(a1-2)Man(a1-2)Man(a1-3)]Man
# Summary of the method: as §1
# [25] = molecular target: Man(a1-2)Man(a1-3)[Man(a1-2)Man(a1-6)]Man(a1-6)[Man(a1-2)Man(a1-2)Man(a1-3)]Man(b1-4)GlcNAc(b1-4)GlcNAc
# Summary of the method: as §1
# [26] = molecular target: Man(a1-2)Man(a1-3)[Man(a1-6)]Man(a1-6)[Man(a1-2)Man(a1-3)]Man(b1-4)GlcNAc(b1-4)GlcNAc
# Summary of the method: as §1
# [27] = molecular target: Man(a1-2)Man(a1-6)[Man(a1-3)]Man(a1-6)[Man(a1-2)Man(a1-2)Man(a1-3)]Man
# Summary of the method: as §1
# [28] = molecular target: Man(a1-2)Man(a1-6)[Man(a1-3)]Man(a1-6)[Man(a1-2)Man(a1-2)Man(a1-3)]Man(b1-4)GlcNAc(b1-4)GlcNAc
# Summary of the method: as §1
# [29] = molecular target: Man(a1-3)[Man(a1-6)]Man
# Summary of the method: as §1
# [30] = molecular target: Man(a1-3)[Man(a1-6)]Man(a1-6)[Man(a1-2)Man(a1-3)]Man(b1-4)GlcNAc(b1-4)GlcNAc
# Summary of the method: as §1
# [31] = molecular target: Man(a1-3)[Man(a1-6)]Man(a1-6)[Man(a1-3)]Man
# Summary of the method: as §1
# [32] = molecular target: Man(a1-3)[Man(a1-6)]Man(a1-6)[Man(a1-3)]Man(b1-4)GlcNAc(b1-4)GlcNAc
# Summary of the method: as §1
# [33] = molecular target: Man(a1-3)[Man(a1-6)]Man(b1-4)GlcNAc(b1-4)GlcNAc
# Summary of the method: as §1
# [34] = molecular target: Man(a1-3)[Man(a1-6)]Man(b1-4)GlcNAc(b1-4)[Fuc(a1-6)]GlcNAc
# Summary of the method: as §1
# [35] = molecular target: Man(a1-6)Man
# Summary of the method: as §1
# [36] = molecular target: Man(b1-4)GlcNAc
# Summary of the method: as §1
# [37] = molecular target: MurNAc(b1-4)GlcNAc
# Summary of the method: as §1
# [38] = molecular target: Neu5Ac(a2-3)Gal
# Summary of the method: as §1
binder,measurement,setting,value
SP16663B-bot-321-25-321 (Bacteroides ovatus) (protein) DDDDEVTMNSKFYLSTKVFPVDSYEASLSVILKDNSVVVNELQPNYRFVACATERLSKDVKITADSDDNLVSAYNKANDTEYNILPAENYSFTNKTVTIENGESVSGDSIKIELLNVGSLTTEGGYLLPVTISSIEGNNLDALSSNRGVVYLKIQNIHVNVESGQPAEGTLIADRSGWTVKVAPTTRGDAKNLIDGTNSDVARDGGAEYWLTVDIGKVQTLTGIRNKCYASSYSPTAVEVFTSSDGAKWKSIGAVTISKSGTQYIKFSKAVETRYLKYYVKQGPNTVSLTEFDLYAK,glycan array binding signal (z-score),[1],-0.23
same,glycan array binding signal (z-score),[2],-0.112
same,glycan array binding signal (z-score),[3],-0.06
same,glycan array binding signal (z-score),[4],0.065
same,glycan array binding signal (z-score),[5],-0.474
same,glycan array binding signal (z-score),[6],0.392
same,glycan array binding signal (z-score),[7],-0.474
same,glycan array binding signal (z-score),[8],-0.415
same,glycan array binding signal (z-score),[9],0.033
same,glycan array binding signal (z-score),[10],-0.025
same,glycan array binding signal (z-score),[11],1.33
same,glycan array binding signal (z-score),[12],0.408
same,glycan array binding signal (z-score),[13],0.244
same,glycan array binding signal (z-score),[14],0.022
same,glycan array binding signal (z-score),[15],-0.232
same,glycan array binding signal (z-score),[16],-0.059
same,glycan array binding signal (z-score),[17],-0.447
same,glycan array binding signal (z-score),[18],0.41
same,glycan array binding signal (z-score),[19],-0.277
same,glycan array binding signal (z-score),[20],-0.268
same,glycan array binding signal (z-score),[21],-0.366
same,glycan array binding signal (z-score),[22],-0.565
same,glycan array binding signal (z-score),[23],-0.176
same,glycan array binding signal (z-score),[24],0.09
same,glycan array binding signal (z-score),[25],0.023
same,glycan array binding signal (z-score),[26],0.083
same,glycan array binding signal (z-score),[27],0.46
same,glycan array binding signal (z-score),[28],-0.288
same,glycan array binding signal (z-score),[29],0.486
same,glycan array binding signal (z-score),[30],-0.553
same,glycan array binding signal (z-score),[31],-0.127
same,glycan array binding signal (z-score),[32],0.523
same,glycan array binding signal (z-score),[33],-0.247
same,glycan array binding signal (z-score),[34],0.967
same,glycan array binding signal (z-score),[35],0.683
same,glycan array binding signal (z-score),[36],-0.736
same,glycan array binding signal (z-score),[37],-0.259
same,glycan array binding signal (z-score),[38],-0.459
